# Experimental data from PubChem BioAssay AID1508642 (National Center for Advancing Translational Sciences (NCATS), 2021).
# The campaign covered roughly 43,000 compounds. About 200 (0.47%) were called active. About 12% were inconclusive and are not listed. Calls come from the whole dose curve; as a rule, active = well fitted cell-killing curve with a large enough effect; inconclusive = small, poorly fitted or top-dose-only effect, or effect the other way; inactive = flat fitted curve, though single readings scatter. The list shows a part of the results.
# Assay: Cell viability qHTS assay in S16 Pmp22-F2sN cells; note: nearly all actives have a fitted effect of over 65% in size
# Conditions: S16 Pmp22-F2sN Schwann cells viability, CellTiter-Glo, 24 h; series mostly up to 57.5 µM; activity change, negative = cytotoxicity: at the top concentration
# How it was run: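 Viability was measured by CellTiter-Glo luminescence (15 min, room temperature). This followed 24 h at 37 °C of compound exposure (23 nL pin transfer) in S16 Pmp22-F2sN Schwann cells, 500-1,000 per well.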
# % is set by controls: 0 for no effect and ±100 for the full control effect.
row,SMILES,"activity change, negative = cytotoxicity"
1,CCOC(=O)c1sc(N2C(=O)c3oc4ccc(F)cc4c(=O)c3C2c2ccc(O)cc2)nc1C (stereo not given),inactive: 3.24%
2,CCC(C)c1ccc(OCC(=O)Nc2ccc(-c3nc4ncccc4o3)cc2)cc1 (stereo not given),inactive: 4.24%
3,CC(C)Oc1ccc(C(=O)N2CCCCC2CCN2CCCCC2)cc1 (stereo not given),inactive: 9.69%
4,Cc1cc(F)ccc1NC(=O)c1c(C)oc2c1C1=NCCN1C=N2,inactive: 1.72%
5,O=C(NCc1ccc(Cl)cc1Cl)c1cccc(N2CCCS2(=O)=O)c1,inactive: 6.02%
6,COc1ccccc1-n1c(=O)n(C)c2c(C(N)=O)nc(-c3cc(OC)c(OC)c(OC)c3)nc21,inactive: 9.42%
7,COc1cc2c(cc1NC(=O)C(C)Oc1ccccc1)oc1ccccc12 (stereo not given),inactive: -16.3%
8,Cc1cc(C)c2c(N)c(C(=O)Nc3ccccc3C(F)(F)F)sc2n1,inactive: -1.03%
9,CCc1ccccc1NC(=O)CSc1nc2c(c(=O)[nH]1)CN(Cc1ccccc1OC)CC2,inactive: -22.3%
10,Cn1cnc(S(=O)(=O)N2CCCC(C(=O)Nc3ccc(OC(F)(F)F)cc3)C2)c1 (stereo not given),inactive: 0.997%
11,CCc1ccc(C(=O)NC2=NC(c3ccccc3F)CC(=O)N2)cc1 (stereo not given),inactive: 0.868%
12,CCOC(=O)c1c(NC(=O)c2ccc(C)c(C)c2)sc2c1CCCCC2,inactive: 4.33%
13,CCC(=O)N1CCc2cc(S(=O)(=O)NC(C(=O)Nc3cc(OC)cc(OC)c3)C(C)C)ccc21 (stereo not given),inactive: 1.58%
14,COCCCNC(=O)c1ccc2nc(CCc3ccccc3)oc2c1,inactive: 3.75%
15,Cc1ccc(OCC(=O)Nc2ccc(-c3nc4ccccc4o3)cc2)c(C)c1,inactive: 3.74%
16,O=C(Nc1ccccc1Br)N1CCC(CN2CCCC2)CC1,inactive: 0.706%
17,Cc1c(Cl)ccc2sc(N3CCN(C(=O)CS(=O)(=O)c4ccccc4)CC3)nc12,inactive: -6.51%
18,O=C(Cc1c(C(=O)O)[nH]c2ccccc12)Nc1cccc(C(F)(F)F)c1,inactive: 5.83%
19,CCOc1ccc(OCC)c(NS(=O)(=O)c2ccc3c(c2)CCN3C(=O)C2CCC2)c1,inactive: 9.07%
20,CCOc1ccc(CNC(=O)Cn2c(=O)c3cccn3c3ccccc32)cc1,inactive: 2.65%

row,SMILES,"activity change, negative = cytotoxicity"
1,CCCN1CCN(CCCNC(=O)c2c(C)nn(-c3ccc(F)cc3)c2-n2cccc2)CC1,inactive: 27.3%
2,Cc1nnc(N2CCCC(C(=O)NCCc3ccccc3)C2)c2nn(-c3ccccc3)c(C)c12 (stereo not given),inactive: 1.96%
3,CCOC(=O)Cn1c(=O)oc2cc(S(=O)(=O)N3CCN(c4cc(C)ccc4C)CC3)ccc21,inactive: -9.93%
4,COCCN1CCN(Cc2ccc(C(=O)NC(C)C)cc2)C(=O)C1=O,inactive: 0.412%
5,CCCCn1c(SCC(=O)NCc2ccc(C)cc2)nc2c(sc3ccccc32)c1=O,inactive: 0.809%
6,COc1ccc(CNC(=O)C(C)n2c(=O)cc(C)c3c(C)nn(-c4ccccc4)c32)cc1 (stereo not given),inactive: -1.5%
7,CCC1CN(C(=O)C2CCN(S(=O)(=O)c3c(C)noc3/C=C/c3ccccc3F)CC2)c2cc(C)ccc2O1 (stereo not given),inactive: -4.57%
8,COc1ccc(C2c3cccn3CCN2S(=O)(=O)c2ccc([N+](=O)[O-])cc2)cc1 (stereo not given),inactive: 8.96%
9,COc1ccc(C2CC(=O)N(CC(=O)Nc3cccc(C)c3C)c3ccccc3S2)cc1OC (stereo not given),inactive: -5.68%
10,Cc1ccc(C(=O)N2CCC(C(N)=O)CC2)cc1NC(=O)c1nsc2ccccc12,inactive: -0.0219%
11,COc1ccccc1CNC(=O)CCCn1c(=O)c2ccccc2n(Cc2ccc(C)cc2)c1=O,inactive: 11%
12,COc1ccc(CN2CCCN(CC(=O)Nc3ccc4c(c3)OCCO4)S2(=O)=O)cc1,inactive: -4.41%
13,Cc1ccc(-c2noc(-c3nnn(CC(=O)Nc4cc(Cl)ccc4C)c3N)n2)cc1,inactive: 2.35%
14,Cc1ccc(CSc2nc3cccnc3n2Cc2ccc(C(=O)NCCc3cccs3)cc2)cc1,inactive: -20.5%
15,Cc1nn(C)c2c1c(C(F)(F)F)cc(=O)n2CC(=O)N1CCC(C)CC1,inactive: 9.28%
16,CC1CCN(S(=O)(=O)c2cc(C(=O)N3CCN(c4ccccc4F)CC3)n(C)c2)CC1,inactive: 21.4%
17,COc1ccc(N(CC(=O)NCCc2ccc(Cl)cc2)S(=O)(=O)c2c(C)nn(C)c2C)cc1,inactive: 14.1%
18,Cc1ccc(Sc2ccc(N3CCCC(C(=O)Nc4ccc(F)cc4F)C3)nn2)cc1 (stereo not given),inactive: -6.09%
19,CCOC(=O)C1CCN(C(=O)c2nn(-c3ccc(OC)cc3)c(=O)c3c2c2ccccc2n3C)CC1,inactive: -6.64%
20,COc1ccc(C(=O)N2CCC(C(=O)Nc3ccccc3Cl)CC2)cc1,inactive: 12.2%

row,SMILES,"activity change, negative = cytotoxicity"
1,CCc1ccccc1NC(=O)c1cc(S(=O)(=O)NC2CCCC2)ccc1F,inactive: -1.42%
2,COc1ccc(NC(=O)c2ccco2)cc1NC(=O)COc1ccccc1Cl,inactive: 7.49%
3,Cc1ccc(C(=O)N/C(=C\c2cn(S(=O)(=O)N(C)C)c3ccccc23)C(=O)NCCCn2ccnc2)cc1,inactive: 0.0561%
4,COc1ccc(-n2nc(C(=O)N3CCN(c4cccc(C)c4)C(C)C3)c3c4ccccc4n(C)c3c2=O)cc1 (stereo not given),inactive: 13.2%
5,CCCn1ccc2c(OCC(=O)Nc3ccc(F)cc3F)cccc2c1=O,inactive: 3.05%
6,CCn1cc(C(=O)NC(C)c2ccccc2)c(=O)c2cc(S(=O)(=O)N3CCc4ccccc4C3)ccc21 (stereo not given),inactive: -3.3%
7,Cc1ccc(-n2nc(C)c3nc(CCC(=O)Nc4ccc(F)cc4)c(=O)n(C)c32)cc1,inactive: -1.86%
8,CCOc1ccccc1N(C)C(=O)NCc1noc2ccccc12,inactive: -28.8%
9,O=C(NCCc1ccc(Cl)cc1)c1cccn1-c1nnc(N2CCCC2)s1,inactive: 3.37%
10,COc1ccc(C(=O)c2cn(CC(=O)Nc3ccc4c(c3)OCO4)c3ccc(OC)cc3c2=O)cc1,inactive: 0.102%
11,Cc1ccc(NC(=O)Cn2cc(S(=O)(=O)N3CCCC3)c(S(=O)(=O)N3CCCC3)c2)c(C)c1,inactive: -2.9%
12,COc1ccc(OC(C)C(=O)NCc2nc(-c3ccc(Cl)cc3)no2)cc1 (stereo not given),inactive: -21.8%
13,COc1ccc(NC(=O)CNS(=O)(=O)c2cccs2)c(OC)c1,inactive: -3.67%
14,CCC(C(=O)NCc1ccccc1)n1ncn2c(cc3occc32)c1=O (stereo not given),inactive: 3.35%
15,CCOC(=O)c1ccc2ncc(C(=O)OCC)c(Nc3ccc(C)c(Br)c3)c2c1,inactive: -9.58%
16,Cc1cccc(C(=O)Nc2cccc(C(=O)OCc3cc(=O)n4ccsc4n3)c2)c1,inactive: 1.98%
17,COc1ccc(Br)cc1CNC(=O)CN1C(=O)CSc2ccc(S(=O)(=O)N3CCOCC3)cc21,inactive: 1.31%
18,Cc1ccc(NC(=O)c2cc3c(=O)n(Cc4cccnc4)ccc3nc2C)cc1F,inactive: 8.08%
19,COc1ccc(OC)c(CNC(=O)c2cccc(NC(=O)N3CCSc4ncccc43)c2)c1,inactive: 3.62%
20,O=c1c2oc3ccccc3c2n(Cc2cccc(C(F)(F)F)c2)c(=O)n1Cc1ccc2c(c1)OCO2,inactive: -0.309%
